The text below walks through data of the supplement of paper PMC10600219.

Each structure is given as a SMILES string. Counter-ions that a name gives are not always drawn. Whole data set: some 2,800 compounds, median “cell viability relative to vehicle” near 1.1, cut for the lowest 2% near 0.19. Some of the results follow.

The assay has as its system NCI-H2228 parental. Description: cell viability relative to vehicle (fraction of vehicle); NCI-H2228 is an ALK-positive lung cancer line and DTP means drug-tolerant persister; higher = less growth inhibition. The settings on record: 100 nM; treatment time 6 days. In short, it runs like this:
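The 3114-agent TargetMol anti-cancer compound library was tested at 100 nM for 6 days on parental NCI-H2228 cells and on persister cells derived with 1000 nM of a targeted drug for 13 days. ATP readout by the CellTiter-Glo 3D Cell Viability Assay gave cell viability relative to DMSO vehicle-treated cells.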
On to `CS(=O)(=O)c1cccc(CNc2nc(Nc3ccc4c(c3)CCC(=O)N4)ncc2C(F)(F)F)c1`, for which the cell viability worked out at 0.984. Next, `NCC1CCC(C(=O)O)CC1` (stereo not drawn) [Amstat]: 1.24; `CC1(C)CCC(CN2CCN(c3ccc(C(=O)NS(=O)(=O)c4ccc(NCC5CCOCC5)c([N+](=O)[O-])c4)c(Oc4cnc5[nH]ccc5c4)c3)CC2)=C(c2ccc(Cl)cc2)C1`: 1.2; `COc1cc(OCc2cccc(-c3ccccc3)c2C)cc(OC)c1CN1CCCC[C@H]1C(=O)O` [PD-1/PD-L1 inhibitor 1]: 1.09. As for `Cn1c(=O)c2c(ncn2CC(=O)O)n(C)c1=O` [Theophylline-7-acetic acid], the figure is 0.863; as for `CC(C)=CCC/C(C)=C/CC/C(C)=C/CC/C(C)=C/CC1=C(C)C(=O)c2ccccc2C1=O` [Menatetrenone], 1.01. As for `COc1cc2ncnc(Nc3ccc(O)cc3)c2cc1OC`, the figure is 1.02; as for `c1cc(Nc2cc(C3CC3)[nH]n2)nc(Nc2ccc3nc[nH]c3c2)n1`, 1.02; as for `CCOC(=O)[C@H](CCc1ccccc1)N[C@@H](C)C(=O)N1CCC[C@H]1C(=O)O` [Enalapril Maleate], 1. Regarding `CNC(=O)[C@H](Cc1ccccc1)NC(=O)[C@H](CC(C)C)[C@H](CSc1cccs1)C(=O)NO` [Batimastat], the cell viability was found to be 1.08. As for `C[C@]12CC[C@@H]3c4ccc(O)cc4CC[C@H]3[C@@H]1C[C@@H](O)[C@@H]2O` [Estriol], the figure is 1.12; as for `Cc1nc(N)sc1-c1ccnc(Nc2ccc(N3CCOCC3)cc2)n1`, 0.988. Next, `Cc1noc(NS(=O)(=O)c2ccc(N)cc2)c1C` [Sulfisoxazole]: 1.18. Next, `CCc1cccc2c3c([nH]c12)C(CC)(CC(=O)O)OCC3` (stereo not drawn) [Etodolac]: 1; `O=C1CC(c2c[nH]c3ccc(F)cc23)C(=O)N1` (stereo not drawn): 1.05; `O=C(/C=C/c1ccc(O)cc1)C1=C(O)C(O)([C@@H]2O[C@H](CO)[C@@H](O)[C@H](O)[C@H]2O)C(O)=C([C@@H]2O[C@H](CO)[C@@H](O)[C@H](O)[C@H]2O)C1=O` (stereo partly drawn) [Hydroxysafflor yellow A]: 1.07. For the compound `C[C@@H]1CN(CC(=O)Nc2ccc3c(c2)Cc2cccc(-c4cc(=O)cc(N5CCOCC5)o4)c2S3)C[C@H](C)O1`, the cell viability came to 1.05. As to `O=C(O)c1ccccc1C(=O)Nc1ccc(-c2ccccc2)cc1` [Kartogenin], the cell viability came out at 1.02. As for `O=C1N=C(N2CCOCC2)CN1c1ccc(Cl)cc1`, the figure is 0.808; as for `C=CC(=O)N1CCC[C@@H](n2nc(-c3ccc(Oc4ccccc4)cc3)c3c(N)ncnc32)C1` [Ibrutinib], 1.05; as for `C=CC(=O)Nc1ccc2ncnc(Nc3ccc(OCc4cccc(F)c4)c(Cl)c3)c2c1`, 1.09.

`CC1=C(CC(=O)O)c2cc(F)ccc2/C1=C\c1ccc([S+](C)[O-])cc1` (stereo not drawn) [Sulindac]: the cell viability worked out at 1.14. As for `COc1c(OCCCN2CCOCC2)ccc2c1N=C(NC(=O)c1cnc(N)nc1)N1CCN=C21` [Copanlisib], the figure is 0.649; as for `O=C(Nc1ccc(C(O)(C(F)(F)F)C(F)(F)F)cc1)c1ccccc1Cl`, 1.06. As for `C/C(=N\NC(=O)c1cccc(S(=O)(=O)N2CCOCC2)c1)c1cc(Cl)ccc1O`, the figure is 1.01. Next, `O=C(NS(=O)(=O)c1ccc(Br)s1)c1ccc(Cl)cc1Cl` [Tasisulam]: 1.01; `COc1ccc(CNC(=O)Nc2ncc([N+](=O)[O-])s2)cc1`: 0.792; `O=C(O)c1ccc2c3c1cccc3c(=O)n1c3ccccc3nc21` [STO-609 acetate]: 1. `OCCOCCN1CCN(C(c2ccccc2)c2ccc(Cl)cc2)CC1` (stereo not drawn) [Hydroxyzine dihydrochloride]: the cell viability came out at 1.04. As for `OCCOCCN1CCN(C(c2ccccc2)c2ccc(Cl)cc2)CC1` (stereo not drawn) [Hydroxyzine Pamoate], the figure is 1.12; as for `C=CC1=C(C(=O)O)N2C(=O)[C@@H](NC(=O)/C(=N\OCC(=O)O)c3csc(N)n3)[C@H]2SC1` [Cefixime], 1.18. As for `NC(=S)N/N=C/c1ncccc1N` [Triapine], the figure is 1.23; as for `Nc1cccc2c1CN(C1CCC(=O)NC1=O)C2=O` (stereo not drawn) [Lenalidomide], 1.09; as for `CC(=O)Nc1ccc(O)cc1` [Acetaminophen], 1.15. As for `CCCCCCCCOC(=O)c1cc(O)c(O)c(O)c1` [Octyl gallate], the figure is 1.03. Consider `COc1ccc(-c2cc(=O)c3c(O)cc(O[C@@H]4O[C@H](CO[C@@H]5O[C@@H](C)[C@H](O)[C@@H](O)[C@H]5O)[C@@H](O)[C@H](O)[C@H]4O)cc3o2)cc1` [Linarin], for which the cell viability worked out at 1.02. Next, `CC(Nc1nc(N2CCCC2)nc2ccccc12)c1ccccc1` (stereo not drawn) [Importazole]: 1.2; `O=S(=O)(O)CCCS(=O)(=O)O` [Eprodisate disodium]: 1.04. As for `CCS(=O)(=O)Nc1ccc2c(c1)/C(=C(/Nc1ccc(CN3CCCCC3)cc1)c1ccccc1)C(=O)N2` [Hesperadin], the figure is 0.254; as for `O=C(Nc1ccc(-c2ccnc(Nc3ccc(N4CCOCC4)cc3)n2)cc1)C1CCCN1` (stereo not drawn), 1.06. Next, `COc1ccc2[nH]c([S+]([O-])Cc3ncc(C)c(OC)c3C)nc2c1` (stereo not drawn) [Omeprazole]: 1.09; `COc1ccc(-c2ccccc2)cc1NS(=O)(=O)c1cc(Cl)cc(Cl)c1O`: 1.01. On to `O=C1/C(=C2\Nc3ccccc3C2=O)Nc2ccccc21` [Indigo], for which the cell viability came to 1.07. As for `C[C@H]1O[C@@H](O[C@H]2CC[C@@]3(C)[C@@H](CC[C@]4(C)[C@@H]3C=C[C@]35OC[C@@]6(CCC(C)(C)C[C@H]63)[C@H](O)C[C@]54C)[C@]2(C)CO)[C@H](O)[C@@H](O[C@@H]2O[C@H](CO)[C@@H](O)[C@H](O)[C@H]2O)[C@H]1O` [Saikosaponin D], the figure is 1.07; as for `N=C(N)N/N=C/c1c(Cl)cccc1Cl` [Guanabenz Acetate], 0.974. Next, `Brc1c(NC2=NCCN2)ccc2nccnc12` [Brimonidine Tartrate]: 0.904; `CN(C)CCOC(=O)COc1ccc(Cl)cc1` [Meclofenoxate hydrochloride]: 1.24. With `Nc1cc(-c2ccncc2)c[nH]c1=O` [Amrinone], the cell viability is 1.17. Next, `CS(=O)(=O)Nc1ccc([N+](=O)[O-])cc1OC1CCCCC1`: 1.11. For `Cc1ccc(NS(=O)(=O)c2cccc(C#N)c2)c2[nH]cc(C#N)c12`, the cell viability worked out at 0.488. As for `COC(=O)C(N)CS` [L-Cysteine methyl ester hydrochloride(Acdrile)], the figure is 1.28; as for `C[C@@H]1CC[C@@]2(OC1)O[C@H]1C[C@H]3[C@@H]4CC=C5C[C@@H](O)C[C@@H](O)[C@]5(C)[C@H]4CC[C@]3(C)[C@H]1[C@@H]2C` [Ruscogenin], 1.02.

Turning to `COc1cc(OC)cc(C(=O)Nc2ccc(Cl)c(-c3nc4ccc(N(C)C)cc4[nH]3)c2)c1` [HhAntag], the cell viability was 1.03. As for `O=C(NCC(=O)N1CCCC1)Nc1ccc2cnccc2c1`, the figure is 1.13; as for `CN(C)CC[C@@H](c1ccc(Cl)cc1)c1ccccn1` [Dexchlorpheniramine Maleate], 0.85. As for `CN(CCOc1ccc(CC2SC(=O)NC2=O)cc1)c1ccccn1` (stereo not drawn) [Rosiglitazone maleate], the figure is 1.06; as for `CN(CCOc1ccc(CC2SC(=O)NC2=O)cc1)c1ccccn1` (stereo not drawn) [Rosiglitazone], 0.998; as for `CCN(c1cc(-c2ccc(CN3CCOCC3)cc2)cc(C(=O)NCc2c(C)cc(C)[nH]c2=O)c1C)C1CCOCC1`, 1.29.

Consider `NC(N)=O`, for which the cell viability is 1.15.

Regarding `O=C(O)CC1CC(c2ccccc2)=NO1` (stereo not drawn), the cell viability came to 1.03. For the compound `COc1ccc(-c2cc(C(F)F)nn2-c2ccc(S(N)(=O)=O)cc2)cc1F` [Deracoxib], the cell viability is 1.16. As for `S=C(N/N=C1/CCCc2cccnc21)N1CCN(c2ccccn2)CC1`, the figure is 1.09; as for `C[C@@H]1O[C@@H](Oc2cc(O)c3c(=O)c(O[C@@H]4O[C@@H](C)[C@H](O)[C@@H](O)[C@H]4O)c(-c4ccc(O)cc4)oc3c2)[C@H](O)[C@H](O)[C@H]1O` [Kaempferitrin], 1.08; as for `Cc1cc(Nc2nc(N[C@@H](C)c3ncc(F)cn3)ncc2Cl)[nH]n1`, 0.569. In the case of `C=CC(=O)Nc1cc(Nc2nccc(-n3cc(CN(C)C)c(-c4ccccc4)n3)n2)c(OC)cc1N1CCOCC1` [Lazertinib], the cell viability stood at 0.976.

On to `CCCCC(=O)N(Cc1ccc(-c2ccccc2-c2nnn[nH]2)cc1)[C@H](C(=O)O)C(C)C.CCOC(=O)[C@H](C)C[C@@H](Cc1ccc(-c2ccccc2)cc1)NC(=O)CCC(=O)O`, for which the cell viability came to 1.13.

Turning to `COC[C@H](NC(=O)c1cnc(C)s1)C(=O)N[C@@H](COC)C(=O)N[C@@H](Cc1ccccc1)C(=O)[C@@]1(C)CO1` [Oprozomib], the cell viability stood at 0.176. For the compound `COc1ccc(C(=O)NCc2ccc(OCCN(C)C)cc2)cc1OC` [Itopride hydrochloride], the cell viability turned out to be 0.995. Next, `N[C@@H](C(=O)N[C@@H]1C(=O)N2C(C(=O)O)=C(Cl)CS[C@H]12)c1ccccc1` [Cefaclor monohydrate]: 1.34; `N#Cc1c(-c2ccccc2)cc(-c2cc(Br)ccc2O)[nH]c1=O`: 1.02. As for `C=C1C(=O)O[C@@H]2C[C@@]3(C)CCC[C@H](C)C3=C[C@H]12` [Helenine], the cell viability turned out to be 1.06.

`O=C(Nc1ccccc1C(=O)Nc1ccc(CCO)cc1)c1ccc([N+](=O)[O-])cc1`: the cell viability came out at 1.12. Regarding `Cc1cnc(CNC(=O)c2c(=O)c3ccc(N4CCCN(C)CC4)nc3n3c2sc2ccccc23)cn1`, the cell viability worked out at 0.233. As for `CN(C)Cc1cccc(N/C(=C2\C(=O)Nc3cc(C(N)=O)ccc32)c2ccccc2)c1`, the figure is 1.15. Next, `Cn1nccc1Nc1nccc(-c2ccn([C@H](CO)c3ccc(Cl)c(F)c3)c(=O)c2)n1` [Ravoxertinib]: 1.

In the case of `N=C(N)NCCC[C@H](N)C(=O)O` [L-arginine monohydrochloride], the cell viability worked out at 1.03. Next, `CNCCC(Oc1ccc(C(F)(F)F)cc1)c1ccccc1` (stereo not drawn) [Fluoxetine]: 1.16; `C[C@@H](CN1CC(=O)NC(=O)C1)N1CC(=O)NC(=O)C1` [Dexrazoxane HCl]: 0.873.
